PubChem BioAssay AID360 (National Center for Advancing Translational Sciences (NCATS), 2006)
The campaign covered roughly 48,000 compounds. About 550 (1.1%) were called active. Roughly 4% stayed inconclusive and do not appear here. Cut-off read from the data, not from the text of the source: active = potency below about 15 µM; inconclusive = mostly about 16 µM to 33 µM; inactive = weaker than that. The list shows a part of the results.

These molecules were tested against Lysosomal acid glucosylceramidase (Homo sapiens) (UniProt P04062) (assay: Glucocerebrosidase). Conditions: purified enzyme, resorufin glucoside fluorescence (screen aimed at inhibitors), 20 min.
In short: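 Compounds titrated against 0.2 nM normal enzyme, 30 uM resorufin beta-D-glucopyranoside substrate, citrate/phosphate buffer with taurocholate and tween-20, pH 5.9. Reaction ran 20 min at room temperature; fluorescence (Ex 548/Em 600) gave AC50.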
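Note: the screen sought inhibitors.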
Potency is the fitted concentration of half-maximal effect.

Chain of UniProt P04062 (P04062 whole entry, looked up): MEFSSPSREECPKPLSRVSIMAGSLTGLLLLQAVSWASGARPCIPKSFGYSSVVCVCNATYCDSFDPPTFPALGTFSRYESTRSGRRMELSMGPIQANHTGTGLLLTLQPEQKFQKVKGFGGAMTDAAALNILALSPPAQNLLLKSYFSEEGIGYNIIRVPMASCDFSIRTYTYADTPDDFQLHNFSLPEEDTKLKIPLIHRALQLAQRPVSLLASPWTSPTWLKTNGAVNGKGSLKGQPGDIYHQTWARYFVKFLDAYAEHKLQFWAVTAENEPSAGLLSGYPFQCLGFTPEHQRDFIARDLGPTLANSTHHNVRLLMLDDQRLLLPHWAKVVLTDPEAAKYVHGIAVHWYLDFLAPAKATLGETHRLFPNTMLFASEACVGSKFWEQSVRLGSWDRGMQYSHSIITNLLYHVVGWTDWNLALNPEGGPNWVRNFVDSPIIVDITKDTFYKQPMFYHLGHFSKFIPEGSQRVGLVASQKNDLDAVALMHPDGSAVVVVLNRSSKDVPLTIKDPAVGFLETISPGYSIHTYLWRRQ

| Structure (SMILES) | Potency |
| --- | --- |
| COc1ccc(NCc2nnc(SCC(=O)Nc3cc(C(F)(F)F)ccc3Cl)o2)cc1 | inactive: > 76.9 µM |
| Cc1cc(C)c2cc3c(ccn3C3OC[C@H](O)[C@H](O)[C@H]3O)cc2n1 (stereo partly drawn) | inactive: > 76.9 µM |
| O=C(NCN1C(=O)C2C3C=CC(C3)C2C1=O)Nc1nncs1 (stereo not drawn) | inactive: > 76.9 µM |
| COc1ccc(C)cc1S(=O)(=O)Nc1cccc(Cl)c1 | inactive: > 76.9 µM |
| COc1cc2c(cc1OC)C(c1ccc3c(c1)OCO3)CC(=O)N2 (stereo not drawn) | inactive: > 76.9 µM |
| CCCOc1ccc(Cc2nc(N)nc(N)n2)cc1 | inactive: > 76.9 µM |
| Cc1cc(C(=O)CSc2nnnn2C)c(C)n1-c1ccc2c(c1)OCCO2 | inactive: > 76.9 µM |
| Cc1ccc(N2C(=O)c3cccc4c(N5CCN(C)CC5)ccc(c34)C2=O)c2cccnc12 | inactive |
| COc1ccc(-n2nnnc2SCC(N)=O)cc1 | inactive: > 76.9 µM |
| CCSc1nnc(NC(=O)c2cc(C)oc2C)s1 | active: 10.9 µM |
| NC(=O)c1ccc(F)cc1 | inactive: > 76.9 µM |
| CC12CN(C(=O)c3ccccc3)C3(C#N)CC1CCC23C (stereo not drawn) | inactive: > 76.9 µM |
| CCC(C)(C)n1nnnc1C(c1cc2cccc(C)c2[nH]c1=O)N1CCCC1 (stereo not drawn) | inactive: > 76.9 µM |
| CC(=O)Nc1ccc(S(=O)(=O)NCc2csc(C)n2)cc1 | inactive: > 76.9 µM |
| COc1ccc(-c2cc(C(F)(F)F)n3nc(C(=O)O)nc3n2)cc1 | inactive: > 76.9 µM |
| CCc1nc2c(cnn2-c2ccc(Cl)cc2)c(=O)n1-c1ccc2c(c1)OCCO2 | inactive: > 76.9 µM |
| Cc1ccsc1C(=O)OCC(=O)N1CCOCC1 | inactive: > 76.9 µM |
| O=c1c2ccccc2sn1-c1ccc(S(=O)(=O)N2CCCC2)cc1 | inactive: > 76.9 µM |
| Cc1ccc2c(C)nc(NC3=NCN(CCc4ccccc4)CN3)nc2c1 | inactive: > 76.9 µM |
| CCCCOC(=O)C(C)Nc1n[nH]c(=O)[nH]c1=O (stereo not drawn) | inactive: > 76.9 µM |
| CC(C)(C)c1cc(C(c2cccnc2)N2CCN(CCO)CC2)cc(C(C)(C)C)c1O (stereo not drawn) | inactive |
| O=C(Nc1ccc(-n2nncc2-c2ccco2)cc1)c1ccc(F)cc1 | inactive |
| O=c1c2ccccc2[nH]c(=S)n1CCN1CCN(Cc2ccccc2)CC1 | inactive: > 76.9 µM |
| CCN1C(=O)c2ccc(C(=O)NCc3ccccc3)cc2C1=O | inactive: > 76.9 µM |

| Structure (SMILES) | Potency |
| --- | --- |
| O=C(N=c1nc2ccccn2s1)c1ccccc1 | inactive: > 76.9 µM |
| Cn1c(SCc2nc3ccccc3s2)nnc1-c1cccs1 | inactive: > 76.9 µM |
| O=C(Cn1cccc1C(=O)c1ccccc1)NCCN1CCOCC1 | inactive: > 76.9 µM |
| COc1ccccc1N1CCN(C(=O)c2ccncc2)CC1 | inactive: > 76.9 µM |
| O=C(C1CCC1)N1CCN(Cc2ccccc2)CC1 | inactive: > 76.9 µM |
| Cc1cc(Oc2ccc(-c3ccccc3)cc2)n2ncnc2n1 | inactive: > 76.9 µM |
| CC(C(=O)NC1=NCCS1)N1C(=O)C2CC=CCC2C1=O (stereo not drawn) | inactive: > 76.9 µM |
| Cc1cc(C)nc(SCc2n[nH]c(=S)n2C)n1 | inactive: > 76.9 µM |
| COC(=O)c1sc(N)c(C(=O)OC)c1COC(=O)C1CC(=O)N(Cc2ccco2)C1 (stereo not drawn) | inactive: > 76.9 µM |
| CCCCOC(=O)CCn1[nH]c(=O)c2ccccc2c1=O | inactive: > 76.9 µM |
| Cn1c(C(=O)NCCCN2CCCC2=O)cc2c(=O)n3ccccc3nc21 | inactive: > 76.9 µM |
| COc1ccccc1NC(=O)CSc1nnc(Cc2ccccc2)o1 | inactive: > 76.9 µM |
| N/C(=N/O)c1nc(N2CCCC2)nc(N(c2ccccc2)c2ccccc2)n1 | inactive: > 76.9 µM |
| CCCNC(=O)c1c(N)n(-c2cc(OC)cc(OC)c2)c2nc3ccccc3nc12 | inactive: > 76.9 µM |
| O=C(CN1C(=O)COc2ccccc21)N1CCN(c2ccccc2F)CC1 | inactive: > 76.9 µM |
| COC(=O)c1ccccc1NC(=O)CSc1nnc(-c2ccoc2C)n1C | inactive: > 76.9 µM |
| O=C(c1ccc(Cl)cc1)c1ccccc1C(=O)N1CCOCC1 | inactive: > 76.9 µM |
| COc1ccc(NC2CC(=O)N(c3ccccc3)C2=O)cc1 (stereo not drawn) | inactive: > 76.9 µM |
| O=C(CN(C(=O)c1ccco1)c1cccc(F)c1)NCc1ccc(F)cc1 | inactive: > 76.9 µM |
| Cc1ccc(CNC(=O)CCc2c(C)nc3ncnn3c2C)cc1 | inactive: > 76.9 µM |
| CCOC(=O)N1CCC(NC(=O)c2ccc3c(=O)n4c(nc3c2)CCCC4)CC1 | inactive: > 76.9 µM |
| Cc1ccc(S(=O)(=O)NCC(=O)N(CC(=O)NCC2CCCO2)Cc2ccccc2)cc1 (stereo not drawn) | inactive: > 76.9 µM |
| CCN(C(=O)c1cn(C)c(=O)c2cc(OC)c(OC)cc12)c1cc(OC)ccc1OC | inactive: > 76.9 µM |
| CN1C(=O)C2(OCC(COc3ccc(Cl)cc3)O2)c2ccccc21 (stereo not drawn) | inactive: > 76.9 µM |

| Structure (SMILES) | Potency |
| --- | --- |
| COC(=O)c1ccccc1NC(=O)C1CCCN(S(=O)(=O)c2ccc(F)cc2)C1 (stereo not drawn) | inactive: > 76.9 µM |
| CC(C)C(c1nnnn1C1CCCC1)N1CCN(C(=O)c2ccco2)CC1 (stereo not drawn) | inactive: > 76.9 µM |
| Cn1c(COc2ccccc2)nnc1SCCC(=O)Nc1ccccc1 | inactive: > 76.9 µM |
| Cc1nc(-c2ccccc2)cc(=O)[nH]1 | inactive: > 76.9 µM |
| Cn1c(=O)c(C(=O)Nc2cccnc2)c(O)c2ccccc21 | inactive: > 76.9 µM |
| N#CCSc1nc2ccccc2c(=O)n1-c1ccccc1 | inactive: > 76.9 µM |
| Cc1cc(C)n(-c2nc(Nc3ccccc3)nc(-n3nc(C)cc3C)n2)n1 | inactive: > 76.9 µM |
| CN(C(=O)CSc1ncccc1C(=O)O)c1ccccc1 | inactive: > 76.9 µM |
| CCN1CCN(Cc2nc(N)nc(Nc3ccc(C)c(C)c3)n2)CC1 | inactive: > 76.9 µM |
| CCOCCCN(CCC#N)S(=O)(=O)c1ccc(S(=O)(=O)N2CCCC2)cc1 | inactive: > 76.9 µM |
| Cn1c(=O)c2[nH]c(Nc3ccccc3)nc2n(C)c1=O | inactive: > 76.9 µM |
| N#CCSc1nc2cc(C(=O)N3CCC(C(N)=O)CC3)ccc2c2nc3ccccc3n12 | inactive: > 76.9 µM |
| COc1ccccc1CNC(=O)CCn1c(=O)[nH]c2ccsc2c1=O | inactive: > 76.9 µM |
| O=C(c1ccc(S(=O)(=O)N2CCC(c3nc4ccccc4[nH]3)CC2)cc1)N1CCOCC1 | inactive: > 76.9 µM |
| Cc1sc2nc(CN(C(=O)c3cccs3)C3CCCC3)[nH]c(=O)c2c1C | inactive: > 76.9 µM |
| CC(C)NC(=O)C1CCN(C(=O)N(C)C)CC1 | inactive: > 76.9 µM |
| NC(=O)NC(Cc1ccccc1)C(=O)O (stereo not drawn) | inactive: > 76.9 µM |
| CC1Cc2ccccc2N1C(=O)CCS(=O)(=O)c1cccs1 (stereo not drawn) | inactive: > 76.9 µM |
| NCCOc1ccccc1-c1ccccc1 | inactive |
| COc1ccc(CCNC(=O)C2CCCN2C(=O)NC2CCCCC2)cc1OC (stereo not drawn) | inactive: > 76.9 µM |
| CC(=O)NC(Cc1ccccc1)C(=O)N1CCN(C(=O)c2ccco2)CC1 (stereo not drawn) | inactive: > 76.9 µM |
| O=C(NCCN1CCOCC1)c1c(F)c(F)c(F)c(F)c1F | inactive |
| Cc1cc2ncn(CCOc3ccccc3C#N)c2cc1C | inactive: > 76.9 µM |
| O=C(CSc1n[nH]c(-c2ccccc2O)n1)N1CCCc2ccccc21 | inactive: > 76.9 µM |

| Structure (SMILES) | Potency |
| --- | --- |
| CCn1c(=O)cc(OCC(=O)Nc2cccnc2)c2ccccc21 | inactive: > 76.9 µM |
| C=CCNC(=O)C1CC(=O)N(c2ccc(OCC(=O)Nc3cccc(OC)c3)cc2)C1 (stereo not drawn) | inactive: > 76.9 µM |
| O=C(NCCN1CCOCC1)c1cc(-c2ccco2)on1 | inactive: > 76.9 µM |
| Cc1nc(CCNC(=O)c2ccccc2)cs1 | inactive: > 76.9 µM |
| CCS(=O)(=O)NCCc1cc2ccc(C)cc2[nH]c1=O | inactive: > 76.9 µM |
| Cc1[nH]nc2c1C1(CCN(C(=O)OCc3ccccc3)CC1)C(C#N)=C(N)O2 | inactive: > 76.9 µM |
| Cc1ccc(C(C(=O)NC2CCCCC2)N(Cc2cccnc2)C(=O)C2COc3ccccc3O2)o1 (stereo not drawn) | inactive |
| CCCc1c(O)nc(SCc2ccccc2)[nH]c1=O | inactive: > 76.9 µM |
| CCCc1cc(=O)n2[nH]c(NCc3c(Cl)cccc3Cl)nc2n1 | inactive: > 76.9 µM |
| COCCNC(=O)CSc1nc(-c2ccc(OC)c(OC)c2)cc(C(F)(F)F)n1 | inactive: > 76.9 µM |
| COc1ccc(-c2nc(C#N)c(N3CCOCC3)o2)cc1OC | inactive: > 76.9 µM |
| COc1ccc(Cc2nnc(SC)[nH]c2=O)cc1OC | inactive: > 76.9 µM |
| O=C(NC1CCCCC1)C1c2ccccc2C(=O)N1Cc1ccco1 (stereo not drawn) | inactive: > 76.9 µM |
| COc1cccc(N2CCN(C(=O)c3ccc(N4C(=O)NC5CC4(C)Oc4ccccc45)cc3)CC2)c1 (stereo not drawn) | inactive: > 76.9 µM |
| Cc1ccc(S(=O)(=O)NCC(=O)OCC(=O)c2cccs2)cc1 | inactive: > 76.9 µM |
| O=C(CN(Cc1ccccc1)C(=O)c1ccco1)NCc1ccc(F)cc1 | inactive: > 76.9 µM |
| NC(=O)c1ccc(NC(=O)CCCc2nc(-c3ccccc3Cl)no2)cc1 | inactive: > 76.9 µM |
| COc1ccccc1CNC(=O)C1CCCN(S(C)(=O)=O)C1 (stereo not drawn) | inactive: > 76.9 µM |
| CCCCCCOC(=O)C(C#N)c1nc2ccccc2nc1N1CCOCC1 (stereo not drawn) | inactive: > 76.9 µM |
| Cn1c(CN2CCCCC2)nc2cc(NC(=O)c3ccccc3)ccc21 | inactive: > 76.9 µM |
| CC(C)(C)NC(=O)CSc1nnc(-c2ccco2)n1Cc1ccco1 | inactive: > 76.9 µM |
